The record followed here is patent US20250304706A1 (Astellas, published 2025).

What is called EC50 is the concentration needed to bring the measured effect to its halfway point.

Numbering of substitutions follows the chain as printed.

The assay addresses T1, CD3εδ complex protein (human; alpaca, UniProt P07766 23-126; P04234 22-105).
T1 construct: they are not part of the secreted protein; also called human CD3; CD386 complex protein
The assay can be described thus: ELISA, CD3 complex immobilized. The procedure: Binding activities of the anti-TSPAN8/anti-CD3 bispecific antibodies BTE-0001 to BTE-0067 to CD3 were evaluated by the ELISA. ELISA was performed according to a conventional method. The […] complex protein obtained in Example 1-3 was immobilized on a plate. BTE-0001 to BTE-0067 were used as the test antibodies. As a secondary antibody, Goat anti-Human IgG Fc, Multi-Species SP ads-HRP (2014-05, available from SouthernBiotech) was used. TMB+Substrate-Chromogen (S1599, available from Dako) was used as the detection reagent. Infinite M200pro (available from Tecan) was used to measure the absorbance. The EC50 values were calculated using variable slope model (four parameters) in GraphPad Prism with the maximum value in the same plate fixed at the top and the minimum value in the blank in the same plate fixed at the bottom. Since BTE-0001 was always measured in each plate as a control, only the EC50 value of BTE-0001 was expressed as the average value of a plurality of plates.
For orientation: In an ELISA, binding on a coated surface is turned into a signal by an enzyme label.

Sequence of UniProt P07766 (P07766 23-126 limits assumed, stated change not applied, form in doubt, chain 1 of 2): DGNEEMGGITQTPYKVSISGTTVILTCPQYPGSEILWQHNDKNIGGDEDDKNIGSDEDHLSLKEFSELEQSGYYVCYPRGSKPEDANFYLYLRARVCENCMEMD
Sequence of UniProt P07766 (P04234 22-105 limits assumed, stated change not applied, form in doubt, chain 2 of 2, further chain): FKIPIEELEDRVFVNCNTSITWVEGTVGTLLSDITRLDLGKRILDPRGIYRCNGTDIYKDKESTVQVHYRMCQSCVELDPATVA

B1: BTE-0033 (bispecific antibody)
chain 1: QVQLVESGGGVVQPGGSLRLSCAASGFTFSSYGMHWVRQAPGKGLEWVAVIWYDGRNKYYADSVKGRFTISRDNSKNTLYLQMNSLRAEDTAVYYCTRDHSGSGSYYIDYWGQGTLVTVSSASTKGPSVFPLAPSSKSTSGGTAALGCLVKDYFPEPVTVSWNSGALTSGVHTFPAVLQSSGLYSLSSVVTVPSSSLGTQTYICNVNHKPSNTKVDKKVEPKSCDKTHTCPPCPAPEAAGGPSVFLFPPKPKDTLMISRTPEVTCVVVDVSHEDPEVKFNWYVDGVEVHNAKTKPREEQYGSTYRVVSVLTVLHQDWLNGKEYKCKVSNKALPAPIEKTISKAKGQPREPQVYTLPPSRDELTKNQVSLSCAVKGFYPSDIAVEWESNGQPENNYKTTPPVLDSDGSFFLVSKLTVDKSRWQQGNVFSCSVMHEALHNHYTQKSLSLSPGK
chain 2: EIAMTQSPATLSVSPGERATLSCRASQSVSSNLAWYQQKPGQAPRLLIYGASTRATGLPARFSGSGSGTEFTLTISSLQSEDFAVYYCQQYNNFWTFGQGTKVEIKRTVAAPSVFIFPPSDEQLKSGTASVVCLLNNFYPREAKVQWKVDNALQSGNSQESVTEQDSKDSTYSLSSTLTLSKADYEKHKVYACEVTHQGLSSPVTKSFNRGEC
chain 3: EVQLVESGGGLIQPGGSLRLSCAASGFTFNTYAMNWVRQAPGKGLEWVARIRSKYNNYATYYADSVKDRFTISRDDSKSTLYLQMNNLRAEDTAVYYCVRHGNFGNAYVSWFAYWGQGTLVTVSSGKPGSGKPGSGKPGSGKPGSQAVVTQEPSLTVSPGGTVTLTCRSSTGAVTTSNYANWVQQKPGQAPRGLIGGTNKRAPGTPARFSGSLLGDKAALTLSGAQPEDEAEYYCALWYSNLWVFGGGTKVTVL[human IgG1 Fc with C220S L234A L235A N297G T366W (EU numbers) cut from this listing]
B1: the midpoint of the response, the EC50, lay at 0.0104 µg/mL.

B2: BTE-0007 (bispecific antibody)
chain 1: B1 chain 1
chain 2: B1 chain 2
chain 3: B1 chain 3 with N30S, T31S, A107S
The molecule B2 had an EC50 of 0.00379 µg/mL.

B3: BTE-0047 (bispecific antibody)
chain 1: B1 chain 1
chain 2: B1 chain 2
chain 3: B1 chain 3 with A107Y
On to B3, for which the EC50 was found to be 0.135 µg/mL.

B4: BTE-0009 (bispecific antibody)
chain 1: B1 chain 1
chain 2: B1 chain 2
chain 3: B1 chain 3 with N35H, A107S
In turn, B4 gave an EC50 of 0.286 µg/mL.

B5: BTE-0058 (bispecific antibody)
chain 1: B1 chain 1
chain 2: B1 chain 2
chain 3: B1 chain 3 with A107S, W243F
B5: it took 0.847 µg/mL to reach a half-maximal effect (EC50).

B6: BTE-0052 (bispecific antibody)
chain 1: B1 chain 1
chain 2: B1 chain 2
chain 3: B1 chain 3 with A107S, A236L
In the case of B6, a half-maximal response (EC50) required 1.23 µg/mL.

B7: BTE-0036 (bispecific antibody)
chain 1: B1 chain 1
chain 2: B1 chain 2
chain 3: B1 chain 3 with A107G
Molecule B7 yielded an EC50 of 0.00431 µg/mL.

B8: BTE-0008 (bispecific antibody)
chain 1: B1 chain 1
chain 2: B1 chain 2
chain 3: B1 chain 3 with N35S, A107S
Regarding B8, the EC50 is 0.431 µg/mL.

B9: BTE-0064 (bispecific antibody)
chain 1: B1 chain 1
chain 2: B1 chain 2
chain 3: B1 chain 3 with A107S, V183F
Consider B9, for which a half-maximal response (EC50) required 1.87 µg/mL.

B10: BTE-0039 (bispecific antibody)
chain 1: B1 chain 1
chain 2: B1 chain 2
chain 3: B1 chain 3 with A107K
In turn, B10 registered an EC50 of 0.00835 µg/mL.

B11: BTE-0049 (bispecific antibody)
chain 1: B1 chain 1
chain 2: B1 chain 2
chain 3: B1 chain 3 with A49G, A107S
For the molecule B11, a half-maximal effect (EC50) was put at 0.00498 µg/mL.

B12: BTE-0050 (bispecific antibody)
chain 1: B1 chain 1
chain 2: B1 chain 2
chain 3: B1 chain 3 with A49S, A107S
B12 displayed an EC50 of 0.00999 µg/mL.

B13: BTE-0006 (bispecific antibody)
chain 1: B1 chain 1
chain 2: B1 chain 2
chain 3: B1 chain 3 with N30S, T31D, Y32H, A107S
For B13, the EC50 came out at 0.224 µg/mL.

B14: BTE-0040 (bispecific antibody)
chain 1: B1 chain 1
chain 2: B1 chain 2
chain 3: B1 chain 3 with A107L
Regarding B14, it took 0.0389 µg/mL to reach a half-maximal effect (EC50). This EC50 lies about 5.8-fold lower than the previous one.

B15: BTE-0004 (bispecific antibody)
chain 1: B1 chain 1
chain 2: B1 chain 2
chain 3: B1 chain 3 with T31S, A107S
In turn, B15 came in with an EC50 of 0.00537 µg/mL.

B16: BTE-0035 (bispecific antibody)
chain 1: B1 chain 1
chain 2: B1 chain 2
chain 3: B1 chain 3 with A107F
Turning to B16, a half-maximal response (EC50) required 0.0875 µg/mL.

B17: BTE-0042 (bispecific antibody)
chain 1: B1 chain 1
chain 2: B1 chain 2
chain 3: B1 chain 3 with A107N
B17 yielded an EC50 of 0.0575 µg/mL.

B18: BTE-0044 (bispecific antibody)
chain 1: B1 chain 1
chain 2: B1 chain 2
chain 3: B1 chain 3 with A107R
For B18, it took 0.00844 µg/mL to reach a half-maximal effect (EC50).

B19: BTE-0038 (bispecific antibody)
chain 1: B1 chain 1
chain 2: B1 chain 2
chain 3: B1 chain 3 with A107I
For B19, the EC50 came to 0.438 µg/mL.

B20: BTE-0056 (bispecific antibody)
chain 1: B1 chain 1
chain 2: B1 chain 2
chain 3: B1 chain 3 with A107S, W238Y
In turn, B20 came in with an EC50 of 0.0989 µg/mL.

B21: BTE-0045 (bispecific antibody)
chain 1: B1 chain 1
chain 2: B1 chain 2
chain 3: B1 chain 3 with A107T
The molecule B21 displayed a half-maximal effective concentration (EC50) of 0.00825 µg/mL.

B22: BTE-0051 (bispecific antibody)
chain 1: B1 chain 1
chain 2: B1 chain 2
chain 3: B1 chain 3 with A107S, W111Y
In turn, B22 gave an EC50 of 0.00735 µg/mL. The EC50 values of the last two molecules are within 1.5-fold of each other.

B23: BTE-0041 (bispecific antibody)
chain 1: B1 chain 1
chain 2: B1 chain 2
chain 3: B1 chain 3 with A107M
Regarding B23, the EC50 amounted to 0.0407 µg/mL.

B24: BTE-0005 (bispecific antibody)
chain 1: B1 chain 1
chain 2: B1 chain 2
chain 3: B1 chain 3 with N30S, T31G, Y32S, A107S
With B24, the EC50 was 0.0387 µg/mL.

B25: BTE-0067 (bispecific antibody)
chain 1: B1 chain 1
chain 2: B1 chain 2
chain 3: B1 chain 3 with A107S, V183L
The molecule B25 registered an EC50 of 0.00334 µg/mL. Compared with the last molecule, the EC50 is about 12-fold lower.

B26: BTE-0043 (bispecific antibody)
chain 1: B1 chain 1
chain 2: B1 chain 2
chain 3: B1 chain 3 with A107Q
B26 came in with an EC50 of 0.0198 µg/mL.

B27: BTE-0055 (bispecific antibody)
chain 1: B1 chain 1
chain 2: B1 chain 2
chain 3: B1 chain 3 with A107S, A236V, W238Y
For B27, the EC50 was found to be 0.0355 µg/mL.

B28: BTE-0057 (bispecific antibody)
chain 1: B1 chain 1
chain 2: B1 chain 2
chain 3: B1 chain 3 with A107S, W243Y
Consider B28, for which the concentration for a half-maximal effect (EC50) was found to be 1.01 µg/mL.

B29: BTE-0046 (bispecific antibody)
chain 1: B1 chain 1
chain 2: B1 chain 2
chain 3: B1 chain 3 with A107V
B29 had an EC50 of 0.32 µg/mL.

B30: BTE-0037 (bispecific antibody)
chain 1: B1 chain 1
chain 2: B1 chain 2
chain 3: B1 chain 3 with A107H
On to B30, for which the response was half-maximal at 0.031 µg/mL (EC50).
